# From publication PMC5892938
# The list shows a part of the results. The source does not settle which construct or isoform was used.
# Molecular target: GST-SBP-ILF3 (Homo sapiens) (UniProt Q12906)
# Assay: targeted RNA Bind-n-Seq
# Conditions: RBNS binding buffer: 25 mM Tris pH 7.5, 150 mM KCl, 3 mM MgCl2, 0.1% Tween, 0.5 mg/mL BSA, 1 mM DTT; 27 nM protein, 750 pM RNA pool; temperature not stated; high values mean tight binding; sequences stand for … in GGGUAAAAGCGAGGUGAA…CGGGACAAGUAUUAUGGG
row,Sequence,binding signal (log2 fold change)
1,UUUUUUUUUUGAGAUCGAUCCGAUCUCCGG [tttttgagapaired],0.156
2,UUUUUUUUUUGAGAUCGAGUCGAUCUCCAG [tttttgagapaired],0.318
3,UUUUUUUUUUGAGAUGGUAGCCAUCUCCUA [tttttgagapaired],0.325
4,GUUGUGUGUGUUGGAGCCUAACACACACAG [gtspaired],-0.217
5,GUUGUGUGUGUUGGCUUCUAACACACACGA [gtspaired],-1.1
6,GGUGUGUGUGUUGGUUCCUAACACAUAUAC [gtspaired],-0.59
7,UUUUUUUUUUGAGAUCGUACCGAUCUCCAG [tttttgagapaired],0.297
8,UUUUUUUUUUGAGACGGAGUCCGUCUCCUG [tttttgagapaired],0.421
9,UUUUUUUUUUGAGAUCGGAGCGAUCUCCUA [tttttgagapaired],0.175
10,GUGUGUUGUGUUGGCACCUAACACAGCGCG [gtspaired],-0.68
11,GUGUGUGGUGUUGGUUCCUAACACCGCACG [gtspaired],-0.646
12,UUUUUUUUUUGAGACUGUGGCAGUCUUCUA [tttttgagapaired],0.577
13,UUUUUUUUUUGAGACUGGUCCAGUCUCCUA [tttttgagapaired],0.625
14,UUUUUUUUUUGAGACGGGGUCCGUUUCCGG [tttttgagapaired],0.875
15,GGUGGUUGUGUUGGCCUCUAACACAAUCGC [gtspaired],-0.534
16,UUUUUUUUUUGAGAGCGUUGCGCUCUCCAG [tttttgagapaired],0.312
17,UUUUUUUUUUGAGACGGCUUCCGUCUUCUG [tttttgagapaired],0.726
18,GUGUGUGGUGUUGGCGUCUAACACCAUAUA [gtspaired],-0.803
19,UUUUUUUUUUGAGACUGCAUCAGUCUCCUG [tttttgagapaired],0.462
20,UUUUUUUUUUGAGACUGUAUCAGUUUCCAG [tttttgagapaired],0.302
21,GUUGGUGGUGUUGGCCCCUAACACCAUCAA [gtspaired],-0.0295
22,UUUUUUUUUUGAGACGGUGACCGUUUCCAG [tttttgagapaired],0.801
23,UUUUUUUUUUGAGAUCGGAUCGAUCUCCUG [tttttgagapaired],-0.0133
24,GUGUGUGGUGUUGGACCCUAACACCGCGCG [gtspaired],-0.572
25,UUUUUUUUUUGAGACUGUGGCAGUUUCCAG [tttttgagapaired],0.826
26,GUGUGUUGUGUUGGACUCUAACACAGCACG [gtspaired],-0.481

row,Sequence,binding signal (log2 fold change)
1,UUUUUUUUUUGAGACGGGAUCCGUUUCCUA [tttttgagapaired],0.39
2,UUUUUUUUUUGAGAUGGUCUCUAUCUCCAG [tttttgagapaired],0.333
3,GUGUUGUGUGUUGGACCCUAACACACAACG [gtspaired],-0.343
4,UUUUUUUUUUGAGACGGUGGCCGUCUUCUA [tttttgagapaired],0.818
5,UUUUUUUUUUGAGAGCGGUACGUUCUCCGG [tttttgagapaired],0.224
6,GUGGUUGGUGUUGGUCCCUAACACCAGCCG [gtspaired],-0.505
7,UUUUUUUUUUGAGACGGCGUCCGUCUCCUG [tttttgagapaired],0.94
8,UUUUUUUUUUGAGAGGGUAACCCUCUCCAG [tttttgagapaired],0.297
9,UUUUUUUUUUGAGAUGGGGCCCAUCUCCGG [tttttgagapaired],0.632
10,UUUUUUUUUUGAGACGGGCGCCGUCUCCUA [tttttgagapaired],0.563
11,GUGUGGUGUGUUGGAACCUAACACAUCACG [gtspaired],-0.693
12,GUGUGUGGUGUUGGUGCCUAACACCGCGCG [gtspaired],-0.552
13,UUCUCUUCUCCUCCGCCGGAGGGGAAGGGA [ctspaired],-0.372
14,UUUUUUUUUUGAGAGCGAGUCGCUCUCCGG [tttttgagapaired],0.164
15,UUUUUUUUUUGAGAUCGAAUCGAUCUUCUA [tttttgagapaired],-0.268
16,UUUUUUUUUUGAGAGGGCUCCCCUCUCCUG [tttttgagapaired],0.701
17,GGUGGUGGUGUUGGUCUCUAACACCGCCGC [gtspaired],0.0122
18,GGUUGGUGUGUUGGAUCCUAACACAUCGAC [gtspaired],-0.779
19,UUUUUUUUUUGAGACCGACACGGUUUCCUA [tttttgagapaired],0.485
20,UUUUUUUUUUGAGAGCGUAACGUUCUCCGG [tttttgagapaired],0.163
21,UUUUUUUUUUGAGAACGACACGUUCUCCUA [tttttgagapaired],-0.0447
22,GUGUUGUGUGUUGGCAUCUAACACACAGCA [gtspaired],-0.566
23,UUUUUUUUUUGAGACUGGGCCAGUCUCCUA [tttttgagapaired],0.494
24,GGUUGGUGUGUUGGACUCUAACACAUCGAC [gtspaired],-0.665
25,GGUUGGUGUGUUGGAAUCUAACACAUCAGC [gtspaired],-0.733
26,UUUUUUUUUUGAGACUGGUGCAGUCUCCUA [tttttgagapaired],0.263

row,Sequence,binding signal (log2 fold change)
1,UUUUUUUUUUGAGAACGAGCCGUUCUCCGG [tttttgagapaired],0.0614
2,GUGUGUUGUGUUGGACUCUAACACAGCGCA [gtspaired],-0.648
3,GUUGGUGGUGUUGGCACCUAACACCACCGA [gtspaired],-0.175
4,UUUUUUUUUUGAGACGGUAACCGUCUCCUA [tttttgagapaired],-0.0965
5,UUUUUUUUUUGAGACCGAGGCGGUCUUCUG [tttttgagapaired],0.669
6,UUCUCCUCUCCUCCGCUGGAGGGGGGGAGA [ctspaired],-0.00434
7,GUGUGGUGUGUUGGCUUCUAACACAUCGCA [gtspaired],-0.749
8,GGUUGUGGUGUUGGCUCCUAACACCGCGAC [gtspaired],-0.83
9,UUUUUUUUUUGAGAGUGAAACACUCUUCUG [tttttgagapaired],-0.0344
10,UUUUUUUUUUGAGACGGCUACCGUUUCCUG [tttttgagapaired],0.581
11,GUGUGUGGUGUUGGCAUCUAACACCAUAUA [gtspaired],-0.498
12,GGUUGGUGUGUUGGUCCCUAACACACCGAC [gtspaired],-0.109
13,GGUUGGUGUGUUGGUGCCUAACACAUCAAC [gtspaired],-0.565
14,GUGGUGUGUGUUGGUAUCUAACACACAUCG [gtspaired],-0.614
15,GGUGUGUGUGUUGGCAUCUAACACAUACGC [gtspaired],-0.524
16,GGUUGUGGUGUUGGUCCCUAACACCGCGAC [gtspaired],-0.633
17,UUUUUUUUUUGAGAGGGCAUCCCUCUCCAG [tttttgagapaired],0.647
18,GGUUGGUGUGUUGGAGCCUAACACAUCGAC [gtspaired],-0.448
19,UUUUUUUUUUGAGAGUGUUGCAUUCUCCAG [tttttgagapaired],0.299
20,GUUGUGUGUGUUGGAGUCUAACACACGCGA [gtspaired],-0.763
21,UUUUUUUUUUGAGAGGGCACCCCUCUCCGG [tttttgagapaired],0.45
22,UUUUUUUUUUGAGAACGUUUCGUUCUCCAG [tttttgagapaired],0.21
23,GGUUGGUGUGUUGGCGCCUAACACAUCAAC [gtspaired],-0.331
24,GUUGUGUGUGUUGGAAUCUAACACACGCGA [gtspaired],-0.714
25,UUUUUUUUUUGAGAGGGCUCCCCUCUCCAG [tttttgagapaired],0.602
26,GUGUGGUGUGUUGGUGCCUAACACACCGCA [gtspaired],-0.394

row,Sequence,binding signal (log2 fold change)
1,GUGUGGUGUGUUGGUGCCUAACACACUACG [gtspaired],-0.29
2,UUUUUUUUUUGAGACUGGAACAGUCUUCUG [tttttgagapaired],0.246
3,UUUUUUUUUUGAGACCGAACCGGUUUCCUG [tttttgagapaired],0.599
4,GUGUUGUGUGUUGGUCUCUAACACACAACG [gtspaired],-0.923
5,UUUUUUUUUUGAGACCGGGCCGGUCUCCUA [tttttgagapaired],0.46
6,GUGGUUGGUGUUGGCCCCUAACACCGACUA [gtspaired],-0.385
7,UUUUUUUUUUGAGACUGGGUCAGUUUCCGG [tttttgagapaired],0.749
8,UUUUUUUUUUGAGAUGGAUUCCGUCUCCUG [tttttgagapaired],0.116
9,UUUUUUUUUUGAGAGCGAAGCGUUCUCCGG [tttttgagapaired],0.206
10,GUGGUGUGUGUUGGCCUCUAACACAUACCA [gtspaired],-0.687
11,UUUUUUUUUUGAGAGCGUGACGUUCUCCUG [tttttgagapaired],0.525
12,UUUUUUUUUUGAGACGGCCACCGUCUCCUA [tttttgagapaired],0.685
13,UUUUUUUUUUGAGAGUGCAACAUUCUCCGG [tttttgagapaired],0.0454
14,UUUUUUUUUUGAGAUGGGGUCUAUCUCCUA [tttttgagapaired],0.468
15,UUCCUUCUUCCUCCGUCGGAGGGAGAGGGA [ctspaired],-0.105
16,UUUUUUUUUUGAGACUGGAUCAGUCUCCUG [tttttgagapaired],0.31
17,UUUUUUUUUUGAGAAGGAUCCCUUCUCCAG [tttttgagapaired],-0.0192
18,GUGUUGUGUGUUGGCGUCUAACACACAGCG [gtspaired],-0.568
19,GUUGGUGGUGUUGGAAUCUAACACCGCCAG [gtspaired],-0.257
20,GUGUGUUGUGUUGGAUUCUAACACAACGCG [gtspaired],-0.767
21,GGUGUUGGUGUUGGCCCCUAACACCAGCGC [gtspaired],-0.304
22,GGUGUUGGUGUUGGUCCCUAACACCGACGC [gtspaired],-0.0467
23,GUGUGUGGUGUUGGUGUCUAACACCACGCG [gtspaired],-0.606
24,UUUUUUUUUUGAGAGCGGGUCGUUCUUCUA [tttttgagapaired],0.58
25,UUUUUUUUUUGAGAGCGUAACGCUCUCCAG [tttttgagapaired],0.653
26,UUUUUUUUUUGAGACGGGAACCGUCUCCUA [tttttgagapaired],0.366
